{
  "source": "patent US20220112258A1",
  "about": "(I MAB BIOPHARMA US, published 2022)",
  "binders": {"B1": {"name": "LI17^142I (anti-PD-L1 v4) Format 2 (Fc fusion)", "heavy": "QVQLLESGGGLVQPGGSLRLSCAASGFTFSSYWMSWVRQAPGKGLEWVANIKQDGSEKYYVDSVKGRFTISRDNAKNSLYLQMNSLRAEDTAVYYCARVALWDDAFDIWGQGTMVTVSSASTKGPSVFPLAPSSKSTSGGTAALGCLVKDYFPEPVTVSWNSGALTSGVHTFPAVLQSSGLYSLSSVVTVPSSSLGTQTYICNVNHKPSNTKVDKKVEPKSCQVQLLESGGGLVQPGGSLRLSCAASGFTFSSYWMSWVRQAPGKGLEWVANIKQDGSEKYYVDSVKGRFTISRDNAKNSLYLQMNSLRAEDTAVYYCARVALWDDAFDIWGQGTMVTVSSASTKGPSVFPLAPSSKSTSGGTAALGCLVKDYFPEPVTVSWNSGALTSGVHTFPAVLQSSGLYSLSSVVTVPSSSLGTQTYICNVNHKPSNTKVDKKV[human IgG1 Fc with changes not listed]", "chain": "DCDIEGKDGKQYESVLMVSIDQLLDSMKEIGSNCLNNEFNFFKRHICDANKEGMFLFRAARKLRQFLKMNSTGDFDLHLLKVSEGTTILLNCTGQVKGRKPAALGEAQPTKSLEENKSLKEQKKLNDLCFLKRLLQEIKTCINKILMGTKEH[human IgG1 Fc with changes not listed]", "light": "DIQMTQSPSTLSASVGDRVIITCRASRGISSWLAWYQQKPGKAPNLLISKASSLESGVPSRFSGSGSGTDFTLTISSLQPEDFATYYCQQSSSIPLTFGGGTKVEIKRTVAAPSVFIFPPSDEQLKSGTASVVCLLNNFYPREAKVQWKVDNALQSGNSQESVTEQDSKDSTYSLSSTLTLSKADYEKHKVYACEVTHQGLSSPVTKSFNRGEC", "notes": "Format 2 with IL-7 W142I"}, "B2": {"name": "L1I7^WT(anti-PD-L1 v3) Format 2 (Fc fusion)", "heavy": "EVQLVESGGGLVQPGGSLRLSCAASGFTFSSYDMSWVRQAPGKSLEWVATISDAGGYIYYSDSVKGRFTISRDNAKNSLYLQMNSLRDEDTAVYICAREFGKRYALDYWGQGTTVTVSSASTKGPSVFPLAPSSKSTSGGTAALGCLVKDYFPEPVTVSWNSGALTSGVHTFPAVLQSSGLYSLSSVVTVPSSSLGTQTYICNVNHKPSNTKVDKKVEPKSCEVQLVESGGGLVQPGGSLRLSCAASGFTFSSYDMSWVRQAPGKSLEWVATISDAGGYIYYSDSVKGRFTISRDNAKNSLYLQMNSLRDEDTAVYICAREFGKRYALDYWGQGTTVTVSSASTKGPSVFPLAPSSKSTSGGTAALGCLVKDYFPEPVTVSWNSGALTSGVHTFPAVLQSSGLYSLSSVVTVPSSSLGTQTYICNVNHKPSNTKVDKKV[human IgG1 Fc with changes not listed]", "chain": "DCDIEGKDGKQYESVLMVSIDQLLDSMKEIGSNCLNNEFNFFKRHICDANKEGMFLFRAARKLRQFLKMNSTGDFDLHLLKVSEGTTILLNCTGQVKGRKPAALGEAQPTKSLEENKSLKEQKKLNDLCFLKRLLQEIKTCWNKILMGTKEH[human IgG1 Fc with changes not listed]", "light": "DIQMTQSPSSLSASVGDRVTITCKASQDVTPAVAWYQQKPGKAPKLLIYSTSSRYTGVPSRFSGSGSGTDFTFTISSLQPEDIATYYCQQHYTTPLTFGQGTKLEIKRTVAAPSVFIFPPSDEQLKSGTASVVCLLNNFYPREAKVQWKVDNALQSGNSQESVTEQDSKDSTYSLSSTLTLSKADYEKHKVYACEVTHQGLSSPVTKSFNRGEC", "notes": "Asymmetrical Format 2: heavy chain-1 Fab-Fab-Fc, heavy chain-2 IL7-Fc, two light chains paired to the longer heavy chain; also called L1I7^WT Format 2; anti-PDL1-IL7 wild type"}, "B3": {"name": "L1I7^142A (anti-PD-L1 v3) Format 2 (Fc fusion)", "heavy": "EVQLVESGGGLVQPGGSLRLSCAASGFTFSSYDMSWVRQAPGKSLEWVATISDAGGYIYYSDSVKGRFTISRDNAKNSLYLQMNSLRDEDTAVYICAREFGKRYALDYWGQGTTVTVSSASTKGPSVFPLAPSSKSTSGGTAALGCLVKDYFPEPVTVSWNSGALTSGVHTFPAVLQSSGLYSLSSVVTVPSSSLGTQTYICNVNHKPSNTKVDKKVEPKSCEVQLVESGGGLVQPGGSLRLSCAASGFTFSSYDMSWVRQAPGKSLEWVATISDAGGYIYYSDSVKGRFTISRDNAKNSLYLQMNSLRDEDTAVYICAREFGKRYALDYWGQGTTVTVSSASTKGPSVFPLAPSSKSTSGGTAALGCLVKDYFPEPVTVSWNSGALTSGVHTFPAVLQSSGLYSLSSVVTVPSSSLGTQTYICNVNHKPSNTKVDKKV[human IgG1 Fc with changes not listed]", "chain": "DCDIEGKDGKQYESVLMVSIDQLLDSMKEIGSNCLNNEFNFFKRHICDANKEGMFLFRAARKLRQFLKMNSTGDFDLHLLKVSEGTTILLNCTGQVKGRKPAALGEAQPTKSLEENKSLKEQKKLNDLCFLKRLLQEIKTCANKILMGTKEH[human IgG1 Fc with changes not listed]", "light": "B2 light", "notes": "Format 2 with IL-7 W142A; also called L1I7^W142A"}, "B4": {"name": "L1I7^142I(anti-PD-L1 v3) Format 2 (Fc fusion)", "heavy": "EVQLVESGGGLVQPGGSLRLSCAASGFTFSSYDMSWVRQAPGKSLEWVATISDAGGYIYYSDSVKGRFTISRDNAKNSLYLQMNSLRDEDTAVYICAREFGKRYALDYWGQGTTVTVSSASTKGPSVFPLAPSSKSTSGGTAALGCLVKDYFPEPVTVSWNSGALTSGVHTFPAVLQSSGLYSLSSVVTVPSSSLGTQTYICNVNHKPSNTKVDKKVEPKSCEVQLVESGGGLVQPGGSLRLSCAASGFTFSSYDMSWVRQAPGKSLEWVATISDAGGYIYYSDSVKGRFTISRDNAKNSLYLQMNSLRDEDTAVYICAREFGKRYALDYWGQGTTVTVSSASTKGPSVFPLAPSSKSTSGGTAALGCLVKDYFPEPVTVSWNSGALTSGVHTFPAVLQSSGLYSLSSVVTVPSSSLGTQTYICNVNHKPSNTKVDKKV[human IgG1 Fc with changes not listed]", "chain": "DCDIEGKDGKQYESVLMVSIDQLLDSMKEIGSNCLNNEFNFFKRHICDANKEGMFLFRAARKLRQFLKMNSTGDFDLHLLKVSEGTTILLNCTGQVKGRKPAALGEAQPTKSLEENKSLKEQKKLNDLCFLKRLLQEIKTCINKILMGTKEH[human IgG1 Fc with changes not listed]", "light": "B2 light", "notes": "Format 2 with IL-7 W142I; also called L1I7^W142I"}, "B5": {"name": "L1I7^142V (anti-PD-L1 v3) Format 2 (Fc fusion)", "heavy": "EVQLVESGGGLVQPGGSLRLSCAASGFTFSSYDMSWVRQAPGKSLEWVATISDAGGYIYYSDSVKGRFTISRDNAKNSLYLQMNSLRDEDTAVYICAREFGKRYALDYWGQGTTVTVSSASTKGPSVFPLAPSSKSTSGGTAALGCLVKDYFPEPVTVSWNSGALTSGVHTFPAVLQSSGLYSLSSVVTVPSSSLGTQTYICNVNHKPSNTKVDKKVEPKSCEVQLVESGGGLVQPGGSLRLSCAASGFTFSSYDMSWVRQAPGKSLEWVATISDAGGYIYYSDSVKGRFTISRDNAKNSLYLQMNSLRDEDTAVYICAREFGKRYALDYWGQGTTVTVSSASTKGPSVFPLAPSSKSTSGGTAALGCLVKDYFPEPVTVSWNSGALTSGVHTFPAVLQSSGLYSLSSVVTVPSSSLGTQTYICNVNHKPSNTKVDKKV[human IgG1 Fc with changes not listed]", "chain": "DCDIEGKDGKQYESVLMVSIDQLLDSMKEIGSNCLNNEFNFFKRHICDANKEGMFLFRAARKLRQFLKMNSTGDFDLHLLKVSEGTTILLNCTGQVKGRKPAALGEAQPTKSLEENKSLKEQKKLNDLCFLKRLLQEIKTCVNKILMGTKEH[human IgG1 Fc with changes not listed]", "light": "B2 light", "notes": "Format 2 with IL-7 W142V; also called L1I7^W142V"}},
  "key": {"[1]": {"target": "T1, PD-L1 expressed on cells (Raji-PD-L1; tumor cell lines RKO, HCC1954, HCC827) (human, UniProt Q9NZQ7)", "T1 construct": "whole, on cells; also called cell-surface expressed PD-L1; cell surface PD-L1", "assay": "flow cytometry on Raji-PD-L1 cells, PE anti-human IgG Fc, MFI", "experimental": "After washing by FACS staining buffer, the PE-conjugated anti-human IgG Fc specific antibody was added to each well and incubated on ice for 30 mins. The MFI of PE were evaluated by FACS Celesta."}, "[2]": {"target": "T2, recombinant human his-tagged PD-L1 protein (human, UniProt Q9NZQ7 partial chain)", "T2 construct": "also called hPDL1-his; his-tagged human PD-L1; not shown: his tag", "assay": "SPR (Biacore T200), fusion molecule captured on protein A chip, his-tagged human PD-L1 injected", "experimental": "(§1) A series of dilutions of human PD-L1 protein were injected over captured antibody at a flow rate of 10 μL/min. […] All the experiments were carried out on a Biacore T200. Data analysis was carried out using Biacore T200 evaluation software."}, "[3]": {"target": "T2, recombinant human his-tagged PD-L1 …", "assay": "ELISA, his-tagged PDL1 coated, OD450", "excerpt": "Briefly, for ELISA-based binding, his-tagged PDL1 was used as coating protein."}, "[4]": {"target": "T2, recombinant human his-tagged PD-L1 …", "assay": "SPR (Biacore T200), ligand captured on protein A chip, hPDL1-his as analyte", "experimental": "as §1"}},
  "data": [
    {"binder": "B1", "values": [
      {"measurement": "EC50", "setting": "[1]", "result": 0.28, "unit": "nM"},
      {"measurement": "Kd", "setting": "[2]", "result": 0.728, "unit": "nM"},
      {"measurement": "koff", "setting": "[2]", "result": 0.000673, "unit": "s⁻¹"},
      {"measurement": "kon", "setting": "[2]", "result": 925000, "unit": "M⁻¹ s⁻¹"},
      {"measurement": "EC50", "setting": "[3]", "result": 0.94, "unit": "nM"}
    ]},
    {"binder": "B2", "values": [
      {"measurement": "Kd", "setting": "[4]", "result": 2.51, "unit": "nM"},
      {"measurement": "koff", "setting": "[4]", "result": 0.000204, "unit": "s⁻¹"},
      {"measurement": "kon", "setting": "[4]", "result": 81400, "unit": "M⁻¹ s⁻¹"},
      {"measurement": "EC50", "setting": "[3]", "result": 0.11, "unit": "nM"}
    ]},
    {"binder": "B3", "values": [
      {"measurement": "EC50", "setting": "[3]", "result": 0.066, "unit": "nM"}
    ]},
    {"binder": "B4", "values": [
      {"measurement": "EC50", "setting": "[3]", "result": 0.12, "unit": "nM"}
    ]},
    {"binder": "B5", "values": [
      {"measurement": "EC50", "setting": "[3]", "result": 0.12, "unit": "nM"}
    ]}
  ]
}
